The list shows a part of the results.
What was measured:
HSkMC = human skeletal muscle cells; assay: cytotoxicity call (relative viability < 0.9); settings: 10 µM
HepG2 = assay: cytotoxicity call (relative viability < 0.9); settings: 10 µM
S. aureus RN4220 = assay: growth inhibition call (relative growth <= 0.2); settings: 50 µM

COc1ccc(C=CC(=O)Nc2ccccc2C(=O)O)cc1OC
inactive: cytotoxicity call (HSkMC) | cytotoxicity call (HepG2) | growth inhibition call (S. aureus RN4220)

O=C(C[C@H]1CC[C@@H]2[C@H](COC[C@@H](O)CN2S(=O)(=O)c2cccc(Cl)c2)O1)NCCCN1CCOCC1
inactive: cytotoxicity call (HSkMC) | cytotoxicity call (HepG2) | growth inhibition call (S. aureus RN4220)

C[C@H]1CCCCO[C@@H](CN(C)C(=O)Nc2cccc3ccccc23)[C@@H](C)CN([C@@H](C)CO)C(=O)c2cc(NS(C)(=O)=O)ccc2O1
inactive: cytotoxicity call (HSkMC) | cytotoxicity call (HepG2) | growth inhibition call (S. aureus RN4220)

C[C@H](CO)N1C[C@H](C)[C@@H](CN(C)S(=O)(=O)c2ccc(F)cc2)OCCCC[C@H](C)Oc2ccc(NC(=O)c3ccccc3)cc2C1=O
inactive: cytotoxicity call (HSkMC) | cytotoxicity call (HepG2) | growth inhibition call (S. aureus RN4220)

Reference: the antibiotic and cytotoxicity screens of Wong et al. (2023)
